Source: patent publication US12377163B2, “Anti-B7H3 antibody-exatecan analog conjugate and medicinal use thereof” (JIANGSU HANSOH PHARMACEUTICAL GROUP CO., LTD, priority 2018, dated 2025)

Columns and labels:
Calu-6 cells = assay: In vitro cell proliferation test (CellTiter-Glo), Calu-6; format: cell-based; conditions: 6 days, CellTiter-Glo; read-out: IC50, inhibition of cell proliferation, Calu-6
Method: (§1) EMEM medium preparation: MEM medium (GE, CAT #SH30024.01), NEAA (sigma, CAT#M7145-100ML) and sodium pyruvate solution (sigma, CAT #S8636-100ML). […] Then the cells were resuspended by the addition of fresh medium. The cells were counted, and the cell suspension was formulated to the corresponding density (U87MG cells: 500 cells/well; […] 180 μL of cell suspension was added to a 96-well plate, and 200 μL of medium was added to the periphery of the 96-well plate. The plate was incubated for 24 hours in an incubator (37° C., 5% CO2). […] The samples were added to the plate, which was incubated for 6 days in the incubator (37° C., 5% CO2). 90 μl of CellTiter-Glo reagent was added to each well of the 96-well plate, and the plate was left to stand in the dark at room temperature for 10 minutes. The chemiluminescence signal value was read in Victor3, and the data was processed by GraphPad software.

A498 cells = assay: In vitro cell proliferation test (CellTiter-Glo), A498; format: cell-based; conditions: 6 days, read-out: IC50, inhibition of cell proliferation, A498
Method: (§2) In this experiment, the inhibition effect of B7H3-ADC on cell proliferation was evaluated based on IC50 by detecting the intracellular ATP content.
(§3) U87MG cells (human brain astroblastoma, Chinese Academy of Sciences cell bank, Catalog #TCHu138), Calu-6 cells (lung cancer cells, ATCC, Catalog #ATCC@ HTB-56™), Detroit562 cells (human pharyngeal carcinoma cells, ATCC, Catalog #ATCC@ CCL-138™) and A498 cells (kidney cancer cells, ATCC, Catalog #ATCC@ HTB-44™) were cultured in EMEM medium containing 10% FBS, and passaged 2 to 3 times a week with a passage ratio of 1:3 or 1:6. […]
(§4) For passage, the medium was removed and the cell layer was washed with 5 mL of 0.25% trypsin, then the trypsin was removed and the cells were digested for 3 to 5 minutes in an incubator. […] The cells were counted, and the cell suspension was formulated to the corresponding density (U87MG cells: 500 cells/well; A-498 cells: 500 cells/well; A-375 cells: 300 cells/well; Calu-6 cells: 800 cells/well; detroit562 cells: 2000 cells/well; and CHO-K1 cells: 500 cells/well). […]
(§5) The samples to be tested were diluted with PBS or DMSO at a 3-fold ratio to 9 concentrations (the initial concentration of each ADC was 500 nM). […] The chemiluminescence signal value was read in Victor3, and the data was processed by GraphPad software.

A375 cells = assay: In vitro cell proliferation test (CellTiter-Glo), A-375; format: cell-based; conditions: 6 days, read-out: IC50, inhibition of cell proliferation, A375
Method: as §2
A-375 (melanoma cells, ATCC, Catalog #ATCC@ CRL-1619™) was cultured in DMEM (GE, SH30243.01) medium containing 10% FBS, and passaged 2 to 3 times a week with a passage ratio of 1:3 or 1:6.
For passage, the medium was removed and the cell layer was washed with 5 mL of 0.25% trypsin, then the trypsin was removed and the cells were digested for 3 to 5 minutes in an incubator. Then the cells were resuspended by the addition of fresh medium. The cells were counted, and the cell suspension was formulated to the corresponding density (U87MG cells: 500 cells/well; A-498 cells: 500 cells/well; A-375 cells: 300 cells/well; Calu-6 cells: 800 cells/well; detroit562 cells: 2000 cells/well; and CHO-K1 cells: 500 cells/well).
180 μL of cell suspension was added to a 96-well plate, and 200 μL of medium was added to the periphery of the 96-well plate. The plate was incubated for 24 hours in an incubator (37° C., 5% CO2).
as §5

[1] = tested on: human pharyngeal carcinoma pleural fluid metastatic cell Detroit 562 xenograft tumor; assay: Efficacy on Detroit562 xenograft tumor in nude mice; format: in vivo, BALB/c nude mice; conditions: for Averange tumor volume (mm^3) Day 0: Day 0 (grouping); for Tumor inhibition rate (%) on Day 28: vs negative control
Excerpt: BALB/c nude mice were used as the test animal to evaluate the efficacy of the ADC compound of the present disclosure on human pharyngeal carcinoma pleural fluid metastatic cell Detroit 562 xenograft tumor in nude mice.
2. Formulation Method: The Drugs were all Diluted and Formulated with PBS. 3. Test Animals
BALB/c nude mice (female, 6 to 7 weeks old) for test were inoculated subcutaneously with human pharyngeal carcinoma pleural fluid metastatic cell Detroit 562 cells. On Day 10 after the inoculation, the animals were randomly grouped with 8 animals per group (D0), and the drugs were administered by intraperitoneal injection once a week for 3 times. The tumor volume and body weight were measured 2 to 3 times a week, and the data were recorded. The calculation formula of tumor volume (V) is as follows: V=½×a×b^2 • wherein: • a and b represent length and width respectively.
Relative volume (RTV)=VT/V0
Tumor inhibition rate (%)=(CRTV−TRTV)/CRTV (%) • wherein V0 and VT represent the tumor volume at the beginning of the test and at the end of the test, respectively. CRTV and TRTV represent the relative tumor volume of the control group (negative control) and the test group at the end of the test, respectively. IV. Test Results

Detroit562 cells = assay: In vitro cell proliferation test (CellTiter-Glo), Detroit562; format: cell-based, human; conditions: 6 days, CellTiter-Glo; read-out: IC50, inhibition of cell proliferation, Detroit562
Method: as §1

CHOK1 cells = assay: In vitro cell proliferation test (CellTiter-Glo), CHO-K1; format: cell-based; conditions: 6 days, CellTiter-Glo; CHO-K1 does not express human B7H3; read-out: IC50, inhibition of cell proliferation, CHOK1
Method: Then the cells were resuspended by the addition of fresh medium. The cells were counted, and the cell suspension was formulated to the corresponding density (U87MG cells: 500 cells/well; […] 180 μL of cell suspension was added to a 96-well plate, and 200 μL of medium was added to the periphery of the 96-well plate. The plate was incubated for 24 hours in an incubator (37° C., 5% CO2). […] The samples were added to the plate, which was incubated for 6 days in the incubator (37° C., 5% CO2). 90 μl of CellTiter-Glo reagent was added to each well of the 96-well plate, and the plate was left to stand in the dark at room temperature for 10 minutes. The chemiluminescence signal value was read in Victor3, and the data was processed by GraphPad software.

U87MG cells = assay: In vitro cell proliferation test (CellTiter-Glo), U87MG; format: cell-based, human; conditions: 6 days, read-out: IC50, inhibition of cell proliferation, U87
Method: as §2, §3, §4, §5

[2] = 1 mpk i.p. once a week for 3 times
[3] = 3 mpk i.p. once a week for 3 times

B1: ADC-2: antibody 1702DS coupled with compound 5-A; exemplary product of formula FADC-2 (conjugate)
heavy: QVQLVQSGGGVVQPGTSLRLSCAASGFIFSSSAMHWVRQAPGKGLEWVAVISYDGSNKYYVDSVKGRFTISRDNSKNTLYLQMNSLRAEDTAVYYCARSARLYASFDYWGQGALVTVSS[human IgG1 constant region not listed]
light: DTVVTQEPSFSVSPGGTVTLTCGLSSGSVSTSHYPSWYQQTPGQAPRMLIYNTNTRSSGVPDRFSGSILGNKAALTITGAQADDESDYYCAIHVDRDIWVFGGGTKLTVLGQPKANPTVTLFPPSSEELQANKATLVCLISDFYPGAVTVAWKADGSPVKAGVETTKPSKQSNNKYAASSYLSLTPEQWKSHRSYSCQVTHEGSTVEKTVAPTEC
Calu-6 cells
  IC50: 70.6 nM
A498 cells
  IC50: 419 nM
A375 cells
  IC50: 33.3 nM
[1]; [2]
  Averange tumor volume (mm^3) Day 0: 182.65 mm^3
  Averange tumor volume (mm^3) Day 28: 738.73 mm^3
  Relative tumor volume Day 28: 4.16
  Tumor inhibition rate (%) on Day 28: 44.26%
[1]; [3]
  Averange tumor volume (mm^3) Day 0: 182.59 mm^3
  Averange tumor volume (mm^3) Day 28: 381.48 mm^3
  Relative tumor volume Day 28: 2.07
  Tumor inhibition rate (%) on Day 28: 72.27%
Detroit562 cells
  IC50: 31.6 nM
CHOK1 cells
  IC50: > 500 nM
U87MG cells
  IC50: 49.1 nM
